Test results from PubChem BioAssay AID1745847 (National Center for Advancing Translational Sciences (NCATS), 2022).
Hit rate of the full screen: of about 2,100 compounds, about 670 (32%) were called active. Inconclusive means that the source gave no clear call. Such entries were picked first, then a sample of the others. The call rests on the fitted dose curve; in most records, active means well fitted inhibition curve with a large enough effect; inconclusive means small, poorly fitted or top-dose-only effect; inactive means no such curve, though single readings can be large or run the other way. Potencies of inconclusive entries are doubtful fits and often do not repeat.

assay: CMV-Luciferase Counterscreen for Inhibitors of ATXN expression; details: HEK-293 CMV-luciferase reporter, luminescence, 24 h; series mostly up to 57.5 µM; activity change, negative = inhibition: at the top concentration; further: nearly all actives have a fitted effect of over 55% in size
On the % scale 0 is the no-effect control and ±100 the full control effect; potency means the concentration at half of the fitted maximal effect; tags describe the fitted curve by direction and shape.

| Compound | Potency | activity change, negative = inhibition |
| --- | --- | --- |
| COc1cc(OC)c(C(=O)C=Cc2ccc(OC)c(OC)c2)c(OC)c1 | inconclusive: 14.1 µM [inhibitor, partial curve] | – |
| COc1cccc(/C=N/Nc2ncnc3c2ncn3Cc2ccccc2)c1O | inconclusive: 1.12 µM [inhibitor, full curve] | – |
| CN(c1ccccc1)c1ccc(/C=N/NC(=O)CC#N)cc1 | inconclusive: 12.6 µM [inhibitor, partial curve] | – |
| CC(C)=CCc1ccc(O)c(=O)cc1C(C)C | inconclusive: 8.91 µM [inhibitor, partial curve, poor fit] | – |
| Cn1c(S(=O)(=O)c2ccc([N+](=O)[O-])cc2)nc(Br)c1Br | inconclusive: 8.91 µM [inhibitor, single point] | – |
| CC(C)(CC(=O)N1CCN(c2ccc(Cl)cc2)CC1)CC1=NS(=O)(=O)c2ccccc2N1 | inconclusive: 3.16 µM [inhibitor, partial curve, poor fit] | – |
| CCOC(=O)c1c(C)oc2c(F)c(F)c(F)c(F)c2c1=O | inconclusive: 7.08 µM [inhibitor, single point] | – |
| CCN(CC)S(=O)(=O)c1ccc(C(=O)Nc2ccc(Cc3ccncc3)cc2)cc1 | inconclusive: 3.16 µM [inhibitor, full curve] | – |
| Cc1ccc(/C=C2\SC(=S)N(CCCC(=O)NC3CCCC3)C2=O)cc1 | active: 2.51 µM | – |
| NS(=O)(=O)c1ccc(CCNC(=O)COC(=O)/C=C/c2cc(Br)ccc2F)cc1 | – | inactive: -4.52% [at 11.4 µM] |
| COc1ccccc1CNc1nc(NCc2ccc(NC(C)=O)cc2)c2sccc2n1 | – | inactive: -22.7% [at 11.4 µM] |
| O=C(N/N=C/c1cc(Cl)ccc1O)c1ccncc1 | inconclusive: 3.98 µM [inhibitor, full curve, poor fit] | – |
| Cc1cccn2c(=O)c3cc(C(=O)NCCN4CCOCC4)c(=N)n(Cc4ccc(F)cc4)c3nc12 | inconclusive: 1.58 µM [inhibitor, full curve] | – |
| Cc1cc(C)cc(NC(=O)CCC(=O)Nc2cc(C)on2)c1 | – | inactive: 165% [at 11.4 µM] |
| COC(=O)Cc1ccc(NC(=S)N2CCN(c3cc(Cl)ccc3C)CC2)cc1 | inconclusive: 5.62 µM [inhibitor, partial curve, poor fit] | – |
| CC(SC(C)C(=O)NN=Cc1cccc(Cl)c1)C(=O)NN=Cc1cccc(Cl)c1 (stereo not drawn) | – | inactive: -24.3% [at 11.4 µM] |
| Cc1cc(O)c(C(C)C)cc1N=Cc1ccc(N(C)C)cc1 | – | inactive: 0.592% [at 11.4 µM] |
| N#C/C(=C\C=C\c1ccccc1[N+](=O)[O-])C(=O)NCc1ccccc1 | active: 3.16 µM | – |
| COc1cc(/C=C/C(=O)CC(=O)/C=C/c2ccc(O)c(OC)c2)ccc1O | inconclusive: 25.1 µM [inhibitor, single point] | – |
| CC(C)(C)OC(=O)CNC(=O)c1[nH]cnc1C(=O)Nc1ccc(CNC(=O)OC(C)(C)C)cc1 | inconclusive: 31.6 µM [inhibitor, single point] | – |
| Cc1ccc(C)c(N2CCN(C(=O)C34CC5CC(C3)CC(n3nnc(C)n3)(C5)C4)CC2)c1 | active: 11.2 µM | – |

| Compound | Potency | activity change, negative = inhibition |
| --- | --- | --- |
| Nc1c(C(=O)NCc2ccccc2)c2nc3ccccc3nc2n1-c1ccc2c(c1)OCO2 | – | inactive: 26.3% [at 11.4 µM] |
| COc1ccc(CC(N)c2csc(Nc3ccc(C(=O)c4ccccc4)cc3)n2)cc1 (stereo not drawn) | inconclusive: 3.16 µM [inhibitor, single point] | – |
| CN(C)CCNC(=O)c1ccc(Cl)c2cc3ccccc3nc12 | active: 10 µM | – |
| O=C(N/N=C\c1cc(Br)ccc1O)c1ccc(S(=O)(=O)N2CCCCC2)cc1 | inconclusive: 0.794 µM [inhibitor, full curve, poor fit] | – |
| Cc1ccc(S(=O)(=O)c2nc(S(C)(=O)=O)sc2N2CCCCC2C)cc1 (stereo not drawn) | inconclusive: 31.6 µM [inhibitor, partial curve, poor fit] | – |
| COc1ccc(CCNC(=O)c2cc3c(F)cccc3s2)cc1OC | inconclusive: 25.1 µM [inhibitor, single point] | – |
| O=C(Nc1ccc(N2CCN(C(=O)c3ccccc3)CC2)c(Cl)c1)c1ccc(Br)o1 | inconclusive: 4.47 µM [inhibitor, partial curve, poor fit] | – |
| CC1=C(C(=O)N(C(C)C)C(C)C)CC(CC(=O)NC2CCCC2)C(=O)N1Cc1ccc(C(C)(C)C)cc1 (stereo not drawn) | inconclusive: 25.1 µM [inhibitor, single point] | – |
| C=CCOC(=O)C1=C(C)NC(SCC)=C(C#N)C1c1ccc(Cl)cc1 (stereo not drawn) | active: 20 µM | – |
| CC(C)Cn1c(/C=N/Nc2nc3ccccc3[nH]2)nc2ccccc21 | inconclusive: 10 µM [inhibitor, partial curve, poor fit] | – |
| O=C(/C=C/c1ccccc1[N+](=O)[O-])c1ccccc1Br | – | inactive: 44.2% [at 11.4 µM] |
| CCOC(=O)c1c(NC(=O)C(Sc2ccccc2)c2ccccc2)sc(C(=O)N(C)C)c1C (stereo not drawn) | inconclusive: 28.2 µM [inhibitor, single point] | – |
| CC1(C)CC(N2CCN(Cc3ccccc3)CC2)=CC(=[N+]2CCCCC2)C1 | inconclusive: 8.91 µM [inhibitor, partial curve, poor fit] | – |
| O=C(c1ccoc1)N1CCN(c2cc(-c3ccco3)nc3cc(-c4ccccc4)nn23)CC1 | inconclusive: 14.1 µM [inhibitor, partial curve, poor fit] | – |
| N=c1ccn(CC(=O)c2ccc(-c3ccccc3)cc2)cc1 | inconclusive: 0.562 µM [inhibitor, full curve, poor fit] | – |
| COc1cc(OC)c(OC)cc1/C=C1\CCC/C(=C\c2cc(OC)c(OC)cc2OC)C1=O | inconclusive: 5.01 µM [inhibitor, single point] | – |
| COc1ccc(C(=O)/C=C/c2ccc(OC3CSC3)cc2)cc1OC | inconclusive: 2 µM [inhibitor, partial curve, poor fit] | – |
| C[C@@H]1C[C@@H]2O[C@H]2/C=C\C=C\C(=O)Cc2c(Cl)c(O)cc(O)c2C(=O)O1 | – | inactive: 25.3% [at 11.4 µM] |
| Cc1cc(C)cc(NS(=O)(=O)c2ccc3c(c2)c(=O)n(C)c(=O)n3C)c1 | active: 11.2 µM | – |
| COc1cccc(/C=N/NC(=O)Cn2nc(C)c([N+](=O)[O-])c2C)c1O | active: 8.91 µM | – |
| CSc1nc(-c2ccc(Cl)cc2)nc(N)c1C#N | – | inactive: -7.46% [at 11.4 µM] |

| Compound | Potency | activity change, negative = inhibition |
| --- | --- | --- |
| C=CCn1c(CNc2ccccc2)nnc1SCC(=O)N/N=C/c1ccccc1O | inconclusive: 1.78 µM [inhibitor, partial curve] | – |
| C=CCc1cccc(/C=N/NC(=O)c2ccccc2Br)c1O | active: 10 µM | – |
| COC(=O)c1ccc(N2CCOCC2)c(NC(=O)Nc2cccc(OC)c2)c1 | – | inactive: 2.86% [at 11.4 µM] |
| CSc1cccc(NC(=O)c2ccc(CN3CCc4ccccc4C3)cc2)c1 | inconclusive: 7.08 µM [inhibitor, partial curve] | – |
| Cc1c(C(=O)Nc2nccs2)sc2nc(-c3cccs3)cc(C(F)(F)F)c12 | inconclusive: 3.16 µM [inhibitor, partial curve, poor fit] | – |
| Cc1nc2c(OCc3cc(Cl)cc(Cl)c3)cccn2c1N(C)C(=O)CCC1CCCC1 | inconclusive: 14.1 µM [inhibitor, partial curve] | – |
| COc1cc2nc(N(C)C)nc(N)c2cc1OC | inconclusive: 28.2 µM [inhibitor, partial curve] | – |
| COc1ccc(S(=O)(=O)Nc2ccc(F)cc2)cc1N(C)S(=O)(=O)c1ccc(Cl)cc1 | active: 10 µM | – |
| Cc1cc2oc3ccc(NCCC4CCCN4C)cc3c(=O)c2cc1C (stereo not drawn) | – | inactive: 6.26% |
| CC(C)COc1cccc(C(=O)N(CC(=O)Nc2ccccc2C(F)(F)F)Cc2ccco2)c1 | inconclusive: 3.98 µM [inhibitor, single point] | – |
| Cn1c(CO)c(-c2ccccc2)c2cc([N+](=O)[O-])ccc21 | inconclusive: 3.16 µM [inhibitor, single point] | – |
| COc1ccc2c(c1)CCCN2S(=O)(=O)c1ccc(Cl)cc1 | inconclusive: 39.8 µM [inhibitor, single point] | – |
| COc1cccc(-c2nc(N3CCN(C)CC3)c3ccccc3n2)c1O | inconclusive: 3.16 µM [inhibitor, single point] | – |
| CCOC(=O)c1ccc(/C=C2/C=C(c3ccccc3)N(c3ccc(Cl)c(C(=O)O)c3)C2=O)cc1 | active: 12.6 µM | – |
| CN1CCC(NC(=O)c2cc(-c3cccc(Br)c3)nc3ccccc23)CC1 | inconclusive: 35.5 µM [inhibitor, single point] | – |
| CCOC(=O)c1sc2nc(C)nc(SC(C)C(=O)N(C)c3ccccc3)c2c1C (stereo not drawn) | inconclusive: 3.55 µM [inhibitor, partial curve, poor fit] | – |
| CC(C)(C)S(=O)(=O)/C(C#N)=N/Nc1ccc(Cl)cc1 | active: 7.94 µM | – |
| COc1ccc(C2CC(c3cccc(Cl)c3)=NN2c2ccc(S(N)(=O)=O)cc2)cc1 (stereo not drawn) | inconclusive: 22.4 µM [inhibitor, single point] | – |
| CN1C(=O)/C(=C\c2ccccc2F)Sc2ccc(C(=O)NC3CCN(Cc4ccccc4)CC3)cc21 | inconclusive: 3.16 µM [inhibitor, partial curve, poor fit] | – |
| CCCc1cc(NCc2ccccn2)n2nc(C)c(-c3ccccc3)c2n1 | inconclusive: 3.98 µM [inhibitor, single point] | – |
| CCOC(=O)Cc1cc(=O)n2[nH]c(C)c(-c3ccc(Cl)cc3)c2n1 | inconclusive: 14.1 µM [inhibitor, partial curve] | – |
